Where “and” joins values, the source holds several entries; their conditions need not be identical. Equal values may be shown once. Screen size: about 150,000 compounds; about 540 (0.36%) showed an effect of 50% or more. The list shows a part of the results.
Tested on: Plasmodium falciparum
Test: Primary screen in NF54 nanoGlo assay, in single point, at 2uM, 72h; a lower Z score goes with more inhibition
Assay type: functional, Erythrocyte
Conditions: timepoint 72 hour

SMILES | % Inhibition | Z score | % Inhibition (2 µM) | Z score (2 µM)
Cc1nc(N2CCCC(C(=O)NCC3COc4ccccc4O3)C2)nc2cc(S(C)(=O)=O)ccc12 (stereo unspecified) | -3% | 0.6 | – | –
COc1ccccc1CC(=O)Nc1cc(S(=O)(=O)N2CCOCC2)ccc1OC | -2% | 0.21 | – | –
OCC1(Cn2cnc3c(N(CC4CC4)C4CCCCC4)ncnc32)COC1 | 1% | -0.2 | – | –
O=C(NCCCC[C@H]1CCCO1)C1CCOCC1 | -5% | 0.87 | – | –
Cc1cc(NC(=O)c2ccsc2)no1 | -5% | 0.72 | – | –
O=C(CCc1nc([C@@H]2CCCN2Cc2ccc3[nH]ccc3c2)no1)N1CCCC1 | -20% | 2.34 | – | –
Cc1cnc(C2CCOCC2)n1CC1CCN(C(=O)c2cccs2)CC1 | -4% | 0.55 | – | –
CCC(CC)(CNC(=O)C1C[C@H]2C[C@@H](N)[C@H]2C1)C(F)(F)F (stereo partly specified) | -2% | 0.24 | – | –
CN(C(=O)C(F)(F)F)c1ccc(-c2nnc(NC(=O)c3ccc(Cl)cc3)s2)cc1 | 8% | -1.11 | – | –
CC(=O)N1CCc2sc(S(=O)(=O)Nc3cccc(Cl)c3C)cc2C1 | 10% | -1.94 | – | –
COc1ccc2c(c1)N(C(=O)c1cccc(C(=O)O)n1)CCCC2 | -2% | 0.26 | – | –
CC(C)[C@@H](CO)NC(=O)Nc1nccc(C(C)(C)C)n1 | -9% | 1.14 | – | –
O=C(CCc1cc2n(n1)CCNC2)NC[C@H](O)c1cc2ccccc2s1 | 6% | -0.78 | – | –
CN(C[C@H]1COCCO1)C(=O)c1ccc(-c2ccc3c(=O)[nH]ccc3c2)cc1 | -2% | 0.28 | – | –
O=C(NCC1CCCN(C(=O)C2CC3CCC2C3)C1)Nc1cccc(F)c1 (stereo unspecified) | 36% | -5.18 | – | –
Cc1cccc(OCC(O)CN2CCC(c3ccccc3)C2)c1 (stereo unspecified) | -2% | 0.32 | – | –
Cc1ccc(NC(=O)C(F)(F)F)cc1Cl | -37% | 4.39 | – | –
CCOc1nnc(CN2CCC[C@@H]2Cn2cncn2)s1 | -6% | 1.19 | – | –
O=C(c1ccc2[nH]ccc2c1)N1CCC(N2CC3(CCCCC3)[C@H]2c2ccccc2)CC1 | 0% | -0.02 | – | –
COc1ccccc1NC(=O)C(=O)c1cccn1Cc1ccc(C)c(C)c1 | -7% | 0.83 | – | –
Cn1nccc1C1(O)CCN(C(=O)OCC(F)(F)F)CC1 | -14% | 2.63 | – | –
C#CCN(Cc1noc(C2CC2)n1)S(C)(=O)=O | -7% | 1.43 | – | –
COc1ccc(CNC(=O)N2CC[C@H](n3c(=O)n(C)c4cccnc43)C2)cc1 | 4% | -0.5 | – | –
c1cc(Cn2cccn2)cc(-c2nccn2C[C@H]2COCCO2)c1 | 4% | -0.58 | – | –
Cc1ccc(-n2cc3c(c2-c2ccccc2)c(=O)n(-c2ccccc2)n3C)cc1 | -2% | 0.25 | – | –
COc1ccccc1N(C)Cc1c(C)noc1C | 7% | -0.98 | – | –
C=CC[C@@H]1N(C(=O)c2ccc(S(N)(=O)=O)cn2)CCCC1(C)C | -6% | 0.97 | – | –

SMILES | % Inhibition | Z score | % Inhibition (2 µM) | Z score (2 µM)
Cc1cccc(CC(=O)N2C[C@@H](CN3CCCCC3)[C@@H](CO)C2)c1 | -12% | 1.83 | – | –
COc1ccc(-n2cc3ccccc3c2C)cc1 | -37% | 4.3 | – | –
O=C1C[C@H](c2ccc(O)cc2)c2c(n(C3CCCCCCC3)[nH]c2=O)N1 | -7% | 0.86 | – | –
CC(C)CN1CCCN(Cc2[nH]c3ccccc3c2Cl)CC1 | 5% | -0.73 | – | –
CCCCC(=O)NS(=O)(=O)Cc1cc(Cl)ccc1F | -7% | 0.99 | – | –
COc1ccc(-n2c(=O)c3ccccc3n(CC(=O)NC3CCCC3)c2=O)cc1OC | -8% | 1.08 | – | –
CCC1(CC)CCN(C(=O)c2cc(CN3CCC[C@H](O)C3)on2)C1 | -10% | 1.73 | – | –
Cc1ccccc1C(=O)N(Cc1ccc(F)cc1)c1cccc(CC(=O)NC[C@H]2CCCO2)c1 | 1% | -0.14 | – | –
O=C(C1C2C(=O)N(Cc3cccnc3)C[C@@]23C=C[C@@H]1O3)N1CCC(F)(F)CC1 (stereo partly specified) | -7% | 0.93 | – | –
COc1ccc(-c2nccc(N(C)C)n2)c(OC)c1OC | 3% | -0.44 | – | –
CN1C(=O)c2cc(NC(=O)C3CCCCC3)ccc2Oc2ncccc21 | -17% | 1.85 | – | –
O=C1N=C(c2ccc(F)cc2)N[C@H]2CCN(C(=O)Cc3ccccc3)C[C@H]12 | -2% | 0.24 | – | –
COc1ccc(CCNC(=O)CN2CCN(c3nccnc3C#N)CC2)cc1 | -9% | 1.05 | – | –
O=C(NC1CC1)c1cccc(NS(=O)(=O)c2ccc(F)cc2F)c1 | 3% | -0.36 | – | –
CCn1nc(C)c(CNc2nnc(CC3CCCC3)o2)c1C | -4% | 0.41 | – | –
CN(CCN1CCCC1=O)C(=O)c1ccc(F)cc1OC(F)F | -3% | 0.54 | – | –
O=C1c2ccccc2N=C(O)[C@@H]2CCCCN12 | – | – | -3% and -4% | 0.53 and 0.49
c1ccc(Oc2cccc(CN3CCC(N4CCCCCC4)CC3)c2)cc1 | 2% | -0.38 | – | –
CC(C)(C)OC(=O)N1CCC(C2(O)CCCC2)CC1 | -3% | 0.38 | – | –
Cn1cncc1-c1c(-c2ccccc2)ncn1[C@H](CO)COCc1ccccc1 | -3% | 0.57 | – | –
NC(=O)Cc1nc([C@@H](O)Cc2ccccc2)n(CC(F)(F)F)n1 | -16% | 2.25 | – | –
COc1ccccc1-c1n[nH]c(C2CC2)c1NC(=O)c1ccc(F)cc1 | -2% | 0.29 | – | –
Cc1cc(C(=O)Nc2ccc3c(c2)OCO3)c(C)o1 | -19% | 1.67 | – | –
O=C(CCc1ccccn1)NC[C@@]12CCC[C@@H]1OCC2 | -9% | 1.13 | – | –
O=C1Nc2ccccc2C(O)=NC1CC(=O)N1CCCC(c2nnc3ccccn23)C1 (stereo unspecified) | -4% | 0.5 | – | –
CC(C(=O)N[C@@H]1C[C@H]1c1c(F)cccc1Cl)n1nnnc1C(C)(C)C (stereo partly specified) | -1% | 0.09 | – | –
